SMILES strings stand for the structures. Screen size: about 150,000 compounds; about 540 (0.36%) showed an effect of 50% or more. This is one part of the list.

The assay has as its system Plasmodium falciparum. Kind of assay: Primary screen in NF54 nanoGlo assay, in single point, at 2uM, 72h; a lower Z score goes with more inhibition. The format is functional, Erythrocyte. The conditions noted are these: timepoint 72 hour.
As to `NC(=O)c1ccc(-n2cnnc2)cc1N1CCCC1`, the “% Inhibition” value is on record as -5% and the Z score was 0.51.

For `COc1ccc(F)cc1S(=O)(=O)N1CCn2c(nn(C)c2=O)C1`, the “% Inhibition” value is on record as -13% and the Z score is recorded as 2.3.

As for `Cc1ccc(S(=O)(=O)N2CC[C@](c3nnnn3C3CCCC3)(N(C)C)C2)cc1F`, the “% Inhibition” value was -16% and the Z score is given as 1.81.

As to `CCn1cc(Cl)c(NC(=O)[C@H]2CNCC23CCCCC3)n1`, the “% Inhibition” value was -1% and the Z score was found to be 0.26.

For `CO[C@@H](C)c1cccc(NC(=O)C(=O)NCc2nc(C)cs2)c1`, the “% Inhibition” value was -5% and the Z score is listed as 0.6.

`Cn1cc(NC(=O)[C@@H]2COCC(=O)N2Cc2ccccc2)cn1`: the “% Inhibition” value was determined as 3% and the Z score is -0.56.

As for `Cc1ccc(OC[C@@H]2CCCN3CCCC[C@H]23)c(C(=O)O)c1`, the “% Inhibition” value stood at 1% and the Z score was -0.14.

For the molecule `CCn1cc(-c2nc(CC(=O)Nc3ccc(F)c(C)c3)cs2)c2cccnc21`, the “% Inhibition” value is -18% and the Z score is 3.14.

As to `COC(=O)c1nc(NC(=O)c2sc(C)nc2C)sc1-c1ccccc1OC`, the “% Inhibition” value is -2% and the Z score came out at 0.3.

With `Cc1cc(C)c(C)c(S(=O)(=O)N2CCn3c(nnc3[C@H]3CCN(C(C)C)C3)C2)c1C`, the “% Inhibition” value is given as 37% and the Z score was -4.95.

For `COc1ncc(CN2C[C@H](CO)OC(C)(C)C2)cc1Cl`, the “% Inhibition” value is 5% and the Z score is reported as -0.72.

As for `CCc1nn(C)cc1C=Cc1nc(C(=O)O)c(C)s1`, the “% Inhibition” value is -1% and the Z score was 0.21.

Take `CCN1CCN(c2ncc(C(=O)Nc3ccccc3)c(N)n2)CC1`: the “% Inhibition” value is -18% and the Z score stood at 2.08.

As for `O=C(C1CCC1)N1CCC[C@H](C(F)(F)F)C1`, the “% Inhibition” value is -4% and the Z score is listed as 0.5.

`COc1ccc(F)c(CN2CCCC3(CCOCC3)C2)c1`: the “% Inhibition” value is 15% and the Z score is recorded as -1.91.

Consider `O=C(Nc1cnccc1CO)c1csc(C2CCCCC2)c1`, for which the “% Inhibition” value was found to be 0% and the Z score is 0.04.

With `Cc1ccc(OCC(=O)N[C@H](c2ccccc2)C2CC2)c(C)c1`, the “% Inhibition” value is given as -12% and the Z score amounted to 1.05.

Take `CN1CCO[C@H](C(=O)Nc2cccc(CCCO)c2)C1`: the “% Inhibition” value is -10% and the Z score was determined as 1.29.

Regarding `CN(Cc1ccccc1)C(=O)CC[C@@H]1C(=O)Nc2ccccc21`, the “% Inhibition” value is -16% and the Z score was found to be 1.95.

Regarding `Cc1nc([C@@H]2CCCCCN2C(=O)C2=CCCCCC2)no1`, the “% Inhibition” value is listed as -10% and the Z score was found to be 1.49.

Regarding `Cc1cccc(-c2nn(Cn3nc(C)c(Cl)c3C)c(-c3cccc(C)c3)c2Cl)c1`, the “% Inhibition” value is 26% and the Z score is -2.9.

With `CC1(C)CN(C(=O)c2ncoc2C2CC2)CC[C@]1(C)O`, the “% Inhibition” value is listed as -9% and the Z score turned out to be 0.75.

As to `Cc1cc(C)[n+](C(c2ccccc2)c2ccccc2)o1`, the “% Inhibition” value is -1% and the Z score was 0.11.

As for `N#CCN1CCN(C(=O)N2CCN(Cc3ccccc3)CC2)CC1`, the “% Inhibition” value is -1% and the Z score came to 0.18.

Turning to `CN(C)C(=O)CC1CCN(C(=O)c2nccnc2O)CC1`, the “% Inhibition” value is -4% and the Z score is listed as 0.56.

Turning to `COc1ccc(-c2nc3cc(C)ccc3cc2CN(C)[C@H]2CCN(C)C2)cc1`, the “% Inhibition” value is -5% and the Z score was 0.85.

Take `O=C(Cc1ccccc1O)N[C@H]1COc2cccc(Cl)c21`: the “% Inhibition” value is listed as -10% and the Z score was found to be 1.9.

In the case of `Cc1ccc(CCN(C[C@H]2CCCO2)S(C)(=O)=O)cc1`, the “% Inhibition” value is -6% and the Z score turned out to be 0.67.

As for `O=C(CC1CCCCC1)Nc1ccc(-c2nc3ccccc3s2)cc1Cl`, the “% Inhibition” value turned out to be 10% and the Z score was -0.88.

With `COc1cc(-c2cc(CN(C[C@H]3CCCO3)C(=O)C(C)(C)C)no2)cc(OC)c1OC`, the “% Inhibition” value is reported as -2% and the Z score was determined as 0.32.

In the case of `CNC[C@@H]1C[C@H](F)CN1C(=O)CC(C)(C)c1ccc(F)cc1`, the “% Inhibition” value is -14% and the Z score is listed as 1.73.

Regarding `CCCn1nccc1C(=O)N1CCN(CC=C(C)C)[C@@H]2CS(=O)(=O)C[C@@H]21`, the “% Inhibition” value is listed as -17% and the Z score is on record as 1.8.

With `CNC(=O)COc1ccc(-c2cccc(C(=O)N3CCC[C@@H]3C)c2)cc1`, the “% Inhibition” value was determined as 0% and the Z score is -0.02.

On to `CC1=C[C@@H](CN2CCC(O)CC2)[C@H](C(C)C)C[C@H]1Cc1nnc(-c2ccncc2)o1`, for which the “% Inhibition” value was -2% and the Z score is reported as 0.33.

For `Cn1c2c(c3ccccc31)CN(C(=O)NC(C)(C)C)CC2`, the “% Inhibition” value is on record as -7% and the Z score was determined as 1.27.

Take `Cn1cc(Cl)c(C(=O)NC(Cc2ccccc2)[C@H]2C[C@H](O)C2)n1` (some centres not stated): the “% Inhibition” value is listed as -16% and the Z score is 1.41.

Turning to `Brc1cnc(NCn2nnc3ccccc32)c(Br)c1`, the “% Inhibition” value is given as -8% and the Z score was determined as 1.64.

Regarding `CCC(C)(C)CN[C@H]1CC2(CN(C(=O)OC(C)(C)C)C2)n2ncnc21`, the “% Inhibition” value was 4% and the Z score is recorded as -0.49.

Consider `CN(C)S(=O)(=O)c1ccc(C(=O)N2CCCC[C@H]2c2cnn(C)c2)cc1`, for which the “% Inhibition” value was -15% and the Z score is listed as 1.91.

Regarding `CNc1ncccc1C(=O)NC(c1cccs1)[C@H]1C[C@@H](O)C1` (some centres not stated), the “% Inhibition” value is 2% and the Z score is recorded as -0.3.

Take `COc1cccc(-c2cc(C(=O)N3CCc4ccccc4C3)nc3cc(-c4ccccc4)nn23)c1`: the “% Inhibition” value turned out to be 3% and the Z score is on record as -0.62.

One may read the % Inhibition as the drop in the measured response relative to a control, in per cent.

These data come from ChEMBL document CHEMBL4888484, “Replenishing the malaria drug discovery pipeline: Screening and hit evaluation of the MMV Hit Generation Library 1 (HGL1) against asexual blood stage Plasmodium falciparum ,using a nano luciferase reporter read-out” (2022).
